Results as given in publication PMC12820563.
Some of the results follow. The list includes weakly bound sequences.

These sequences were tested against T1, MBP-FoxP3dN (UniProt Q99JB6) (assay: PD-seq (MBP pull-down with sequencing)). Details: 20 mM Tris-HCl pH 7.5, 100 mM NaCl, 1.5 mM MgCl2, 0.4 uM protein, 0.1 uM dsDNA library, 30 min, room temperature, amylose pull-down; high values mean tight binding; double strand, one strand shown.
T1 sequence: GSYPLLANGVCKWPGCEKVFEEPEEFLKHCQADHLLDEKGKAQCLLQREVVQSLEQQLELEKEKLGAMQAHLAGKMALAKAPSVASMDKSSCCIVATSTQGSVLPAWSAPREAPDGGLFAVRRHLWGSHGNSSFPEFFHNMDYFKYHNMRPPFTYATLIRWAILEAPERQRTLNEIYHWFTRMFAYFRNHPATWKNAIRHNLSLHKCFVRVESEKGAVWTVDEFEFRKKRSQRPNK
“GATGATTGTTCTCCCAGCTGATGAATTAGGTTCGTCGAGTAAACAAATTTTCCTAATCTTTCTGTTCAAGCGCCATCTAC” showed a binding signal (RPM ratio (pull-down/input)) of 0.786.
In the case of “GATGATTGTTCTCCCAGCTGATGAATTCCAATGATCGAGTAAACAAATTTTCCTAATCTTTCTGTTCAAGCGCCATCTAC”, the binding signal (RPM ratio (pull-down/input)) was 0.367.
“GATGATTGTTCTCCCAGCTGATGAATTCTTCGTCTCGAGTAAACAAATTTTCCTAATCTTTCTGTTCAAGCGCCATCTAC” showed a binding signal (RPM ratio (pull-down/input)) of 0.284.
Work on “GATGATTGTTCTCCCAGCTGATGAATTGCATGTGTCGAGTAAACAAATTTTCCTAATCTTTCTGTTCAAGCGCCATCTAC” yielded a binding signal (RPM ratio (pull-down/input)) of 2.29.
Sequence “GATGATTGTTCTCCCAGCTGATGAATTGATCGGGTCGAGTAAACAAATTTTCCTAATCTTTCTGTTCAAGCGCCATCTAC” has a binding signal (RPM ratio (pull-down/input)) of 0.262.
“GATGATTGTTCTCCCAGCTGATGAATTGAAGGCATCGAGTAAACAAATTTTCCTAATCTTTCTGTTCAAGCGCCATCTAC” gave a binding signal (RPM ratio (pull-down/input)) of 0.843.
“GATGATTGTTCTCCCAGCTGATGAATTACCTTCATCGAGTAAACAAATTTTCCTAATCTTTCTGTTCAAGCGCCATCTAC” showed a binding signal (RPM ratio (pull-down/input)) of 0.374.
Work on “GATGATTGTTCTCCCAGCTGATGAATTAGGGGAGTCGAGTAAACAAATTTTCCTAATCTTTCTGTTCAAGCGCCATCTAC” yielded a binding signal (RPM ratio (pull-down/input)) of 0.337.
In the case of “GATGATTGTTCTCCCAGCTGATGAATTGCGTATGTCGAGTAAACAAATTTTCCTAATCTTTCTGTTCAAGCGCCATCTAC”, the binding signal (RPM ratio (pull-down/input)) was 3.03.
With “GATGATTGTTCTCCCAGCTGATGAATTTAGCGGTTCGAGTAAACAAATTTTCCTAATCTTTCTGTTCAAGCGCCATCTAC” the binding signal (RPM ratio (pull-down/input)) was 0.737.
Sequence “GATGATTGTTCTCCCAGCTGATGAATTTCATAAATCGAGTAAACAAATTTTCCTAATCTTTCTGTTCAAGCGCCATCTAC” has a binding signal (RPM ratio (pull-down/input)) of 0.207.
Sequence “GATGATTGTTCTCCCAGCTGATGAATTAATCGTATCGAGTAAACAAATTTTCCTAATCTTTCTGTTCAAGCGCCATCTAC” has a binding signal (RPM ratio (pull-down/input)) of 0.651.
Sequence “GATGATTGTTCTCCCAGCTGATGAATTAATTAGCTCGAGTAAACAAATTTTCCTAATCTTTCTGTTCAAGCGCCATCTAC” has a binding signal (RPM ratio (pull-down/input)) of 1.1.
“GATGATTGTTCTCCCAGCTGATGAATTAGCACTATCGAGTAAACAAATTTTCCTAATCTTTCTGTTCAAGCGCCATCTAC” gave a binding signal (RPM ratio (pull-down/input)) of 0.544.
For “GATGATTGTTCTCCCAGCTGATGAATTAGGAACGTCGAGTAAACAAATTTTCCTAATCTTTCTGTTCAAGCGCCATCTAC”, the binding signal (RPM ratio (pull-down/input)) was 0.293.
With “GATGATTGTTCTCCCAGCTGATGAATTGAGCAACTCGAGTAAACAAATTTTCCTAATCTTTCTGTTCAAGCGCCATCTAC” the binding signal (RPM ratio (pull-down/input)) was 4.74.
With “GATGATTGTTCTCCCAGCTGATGAATTGGAGAATTCGAGTAAACAAATTTTCCTAATCTTTCTGTTCAAGCGCCATCTAC” the binding signal (RPM ratio (pull-down/input)) was 0.639.
“GATGATTGTTCTCCCAGCTGATGAATTTCCGGCGTCGAGTAAACAAATTTTCCTAATCTTTCTGTTCAAGCGCCATCTAC” showed a binding signal (RPM ratio (pull-down/input)) of 0.353.
Work on “GATGATTGTTCTCCCAGCTGATGAATTGTAGTCCTCGAGTAAACAAATTTTCCTAATCTTTCTGTTCAAGCGCCATCTAC” yielded a binding signal (RPM ratio (pull-down/input)) of 0.959.
For “GATGATTGTTCTCCCAGCTGATGAATTAGCAGATTCGAGTAAACAAATTTTCCTAATCTTTCTGTTCAAGCGCCATCTAC”, the binding signal (RPM ratio (pull-down/input)) was 0.29.
For “GATGATTGTTCTCCCAGCTGATGAATTTCTGTTGTCGAGTAAACAAATTTTCCTAATCTTTCTGTTCAAGCGCCATCTAC”, the binding signal (RPM ratio (pull-down/input)) was 1.28.
“GATGATTGTTCTCCCAGCTGATGAATTTAGGTGGTCGAGTAAACAAATTTTCCTAATCTTTCTGTTCAAGCGCCATCTAC” gave a binding signal (RPM ratio (pull-down/input)) of 0.58.
For “GATGATTGTTCTCCCAGCTGATGAATTCAAAACGTCGAGTAAACAAATTTTCCTAATCTTTCTGTTCAAGCGCCATCTAC”, the binding signal (RPM ratio (pull-down/input)) was 0.352.
“GATGATTGTTCTCCCAGCTGATGAATTCTTCGGCTCGAGTAAACAAATTTTCCTAATCTTTCTGTTCAAGCGCCATCTAC” showed a binding signal (RPM ratio (pull-down/input)) of 0.175.
“GATGATTGTTCTCCCAGCTGATGAATTACCGCGGTCGAGTAAACAAATTTTCCTAATCTTTCTGTTCAAGCGCCATCTAC” was tested, and the binding signal (RPM ratio (pull-down/input)) was 0.284.
“GATGATTGTTCTCCCAGCTGATGAATTAGTCTTTTCGAGTAAACAAATTTTCCTAATCTTTCTGTTCAAGCGCCATCTAC” showed a binding signal (RPM ratio (pull-down/input)) of 0.639.
Sequence “GATGATTGTTCTCCCAGCTGATGAATTTTGTGAATCGAGTAAACAAATTTTCCTAATCTTTCTGTTCAAGCGCCATCTAC” has a binding signal (RPM ratio (pull-down/input)) of 0.828.
Work on “GATGATTGTTCTCCCAGCTGATGAATTTCTTTGTTCGAGTAAACAAATTTTCCTAATCTTTCTGTTCAAGCGCCATCTAC” yielded a binding signal (RPM ratio (pull-down/input)) of 2.28.
“GATGATTGTTCTCCCAGCTGATGAATTAACGCAGTCGAGTAAACAAATTTTCCTAATCTTTCTGTTCAAGCGCCATCTAC” showed a binding signal (RPM ratio (pull-down/input)) of 0.599.
“GATGATTGTTCTCCCAGCTGATGAATTAGCAGTGTCGAGTAAACAAATTTTCCTAATCTTTCTGTTCAAGCGCCATCTAC” was tested, and the binding signal (RPM ratio (pull-down/input)) was 0.643.
With “GATGATTGTTCTCCCAGCTGATGAATTTCTTAGTTCGAGTAAACAAATTTTCCTAATCTTTCTGTTCAAGCGCCATCTAC” the binding signal (RPM ratio (pull-down/input)) was 0.645.
“GATGATTGTTCTCCCAGCTGATGAATTCATTGGTTCGAGTAAACAAATTTTCCTAATCTTTCTGTTCAAGCGCCATCTAC” gave a binding signal (RPM ratio (pull-down/input)) of 2.03.
